Source: the DeepSol protein solubility set

Assay: soluble on expression in E. coli; label from the status in PepcDB or PDB records

Row | Sequence | soluble on expression in E. coli
1 | AHHHHHHGSDLAFELRKAMETGKVVLGSNETIRLAKTGGAKLIIVAKNAPKEIKDDIYYYAKLSDIPVYEFEGTSVELGTLLGKPFVVASLAIVDPGESKILAIAKR | soluble
2 | DIVLTQSPASLAVSLGQRATISCRASESVDNYGISFMSWFQQKPGQPPKLLIYAASNQGSGVPARFSGSGSGTDFSLNIHPMEEDDTAMYFCQQSKEVPLTFGAGTKLELKRADAAPTVSIFPPSSEQLTSGGASVVCFLNNFYPKDINVRWKIDGSERQNGVLNSWTDQDSKDSTYSMSSTLTLTKDEYERHNSYTCEATHAASPIVKSFNRNEC | soluble
3 | GPDDNHLSIVTLEEAPFVIVEDIDPLTETCVRNTVPCRKFVKINNSTNEGMNVKKCCKGFCIDILKKLSRTVKFTYDLYLVTNGKHGKKVNNVWNGMIGEVVYQRAVMAVGSLTINEERSEVVDFSVPFVETGISVMVSRGTQVTGLSDKKFQRPHDYSPPFRFGTVPNGSTERNIRNNYPYMHQYMTRFNQRGVEDALVSLKTGKLDAFIYDAAVLNYKAGRDEGCKLVTIGSGYIFATTGYGIALQKGSPWKRQIDLALLQFVGDGEMEELETLWLTGICHN | soluble
4 | MGASYSSYLAKADQKRGKKQTARETKKKVLAERRKPLNIDHLNEDKLRDKAKELWDWLYQLQTEKYDFAEQIKRKKYEIVTLRNRIDQAQKHSKKAGAKGKVGGRWK | soluble
5 | MGHHHHHHSHMMYYYDDGTGVQVYPVEEALLKEYIKRQIEYYFSVENLERDFFLRGKMDEQGFLPISLIAGFQRVQALTTNLNLILEALKDSTEVEIVDEKMRKEIEPEKWPIPGPPPRSVPPTDFSQLIDCPEFVPGQAFCSHTESAPNSPRIGSPLSPKKNSETSILQAMSRGLSTSLPDLDSEPWIEVKKRHQPAPVKLRESVSVPEGSLNQLCSSEEPEQEELDFLFDEEIEQIGRKNTFTDWSDNDSDYEIDDQDLNKILIVTQTPPYVKKHRGGDRTGTHMSRAKITSELAKVINDGLYYYEQDLWMEEDENKHTAIKVIVSGQHLSTDALF | soluble
6 | MPAPRYRSRSYRRIYRRTPGGRIVIHYKRRKPGKPKCAICGAELHGVPRGRPVEIRKLPKSQRRPERPYGGYLCPRCLKRLMIQKARNLLEHHHHHH | not soluble
7 | MSKVSRESLNEAIAEVLKGSSEKPRKFRETIELQIGLKNYDPQKDKRFSGSIRLKHIPRPNMKVCVFGDQHHLDEAAAGDIPSMSADDLKKLNKQKKLIKKLAKSYDAFIASESLIKQIPRILGPGLNKAGKFPSVVTHGESLQSKSDEIRATVKFQMKKVLCLSVAVGHVGLTQEELVSNISLSINFLVSLLKKNWQNVRSLNIKSTMGKPQRVY | not soluble
